About 17,000 (5.5%) of roughly 310,000 compounds were called active. Roughly 11% stayed inconclusive and do not appear here. Calls follow the shape of the dose curve; as a rule, active = well fitted inhibition curve with a large enough effect; inconclusive = small, poorly fitted or top-dose-only effect, or effect the other way; inactive = no such curve, though single readings can be large or run the other way. This is a selection; strong and weak results do not stand in their true shares. Where a structure was tested more than once in an assay, its records may differ in their call.

We go through 25 compounds from PubChem BioAssay AID2551 (National Center for Advancing Translational Sciences (NCATS), 2010).
% is scaled to controls: 0 for no effect and ±100 for the full control effect; potency is read from the fitted curve at half-maximal effect.

The assay has as its target Nuclear receptor ROR-gamma (Mus musculus) (UniProt P51450). Put plainly: qHTS for inhibitors of ROR gamma transcriptional activity. Also: nearly all actives have a fitted effect of over 60% in size. The following applies: Drosophila S2 Gal4-RORgamma UAS-luciferase reporter, 20 h; series mostly up to 53.6 µM; activity change, negative = inhibition: at the top concentration. From the text: NIH Molecular Libraries Probe Production Network [MLPCN] NIH Chemical Genomics Center [NCGC] MLPCN Grant: R03 DA026211-01 Assay Provider: Dan Littman, New York University Assay Overview: The retinoic acid-related orphan receptor (ROR) gamma is a transcription factor that has a central role in the differentiation of Th17 cells, a subset of T helper cells that secrete the inflammatory cytokines IL-17, IL-17F, and IL-22. Th17 cells have been implicated in graft versus host disease, autoimmune disease and asthma. ROR gamma is induced in naive T helper cells in the presence of TGF-beta combined with IL-6, IL-21, or IL-23, and thereafter directs the expression of the Th17 lineage cytokines. To study the mechanism of action of ROR gamma, an insect cell-based assay was screened. This Drosophila Schneider cell line was stably transfected with two vectors: a gene expressing a fusion of the Gal4 DNA binding domain and ROR gamma transactivation domain under the control of the metallothionine promoter and a Photinus luciferase reporter regulated by the Gal4 binding site enhancer, UAS. […] Small molecule inhibitors of ROR gamma activity are detected by a decrease in luciferase reporter activity.
Sequence of UniProt P51450 (P51450 whole entry, looked up, the tested form may be a part): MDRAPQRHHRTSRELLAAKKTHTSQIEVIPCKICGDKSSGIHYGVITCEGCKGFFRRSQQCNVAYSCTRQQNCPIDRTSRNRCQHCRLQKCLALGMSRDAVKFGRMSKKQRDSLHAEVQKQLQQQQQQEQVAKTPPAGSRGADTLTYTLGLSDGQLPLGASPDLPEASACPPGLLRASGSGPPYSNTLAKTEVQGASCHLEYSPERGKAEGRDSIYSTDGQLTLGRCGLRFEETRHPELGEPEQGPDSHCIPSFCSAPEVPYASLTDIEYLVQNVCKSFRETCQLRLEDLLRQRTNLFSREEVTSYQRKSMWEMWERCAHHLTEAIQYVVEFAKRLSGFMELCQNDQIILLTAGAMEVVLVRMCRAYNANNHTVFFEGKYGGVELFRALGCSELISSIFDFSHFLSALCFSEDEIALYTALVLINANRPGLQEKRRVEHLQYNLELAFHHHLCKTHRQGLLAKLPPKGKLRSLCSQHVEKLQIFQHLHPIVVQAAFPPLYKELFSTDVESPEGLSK
Assay Protocol Summary: For screening, 600 cells in 4 uL/well were dispensed into white solid 1536-well plates (Grenier) using a solenoid-based dispenser. Following transfer of 23 nL compound or DMSO vehicle by a pin tool, the plates were incubated 1 hr at ambient temperature, and 1 uL/well copper sulfate (700 uM final concentration) was added. The plates were centrifuged 15 s at 1000 RPM and incubated 20 hr at ambient temperature. After addition of 1.5 uL Photinus luciferase detection reagent, the plates were incubated 10 min at ambient temperature and then read by an ViewLux (Perkin Elmer) to detect luminescence. Keywords: NIH Roadmap, MLPCN, MLI, MLSMR, qHTS, NCGC, qHTS, nuclear hormone receptor, retinoic acid-related orphan receptor, ROR gamma
Background: In qHTS, concentration-response curves come from the screen itself.
Consider `CC(C)(O)C1C2OC(=O)C1C1(O)CC3OC34C(=O)OC2C14C` (stereo not given), for which the “activity change, negative = inhibition” value was inactive: 42.9%.

Take `CN1C(=O)CCS(=O)(=O)[C@@H]1c1ccc(Cl)cc1`: the “activity change, negative = inhibition” value is inactive: 12.2% [at 16.9 µM].

As to `COc1cc2c(cc1O)CC1c3c(cc(O)c(OC)c3-2)CCN1C` (stereo not given), the activity change, negative = inhibition entry is “inactive”.

As to `C[C@]12CC[C@H]3C(=CCc4cc(O)ccc43)[C@@H]1CCC2=O`, the “activity change, negative = inhibition” value is inactive: 12.6%.

With `CC(=O)c1c(O)c(C)c(O)c(Cc2c(O)c3c(c(C(=O)/C=C/c4ccccc4)c2O)OC(C)(C)C=C3)c1O`, the “activity change, negative = inhibition” value is inactive: 15.8%.

Regarding `CN1C(=O)CCS(=O)(=O)C1c1ccc(Cl)cc1` (stereo not given), the activity change, negative = inhibition entry is “inactive”.

With `c1ccc2c(c1)OCC(C1=NCCN1)O2` (stereo not given), the “activity change, negative = inhibition” value was inactive: -3.5%.

In the case of `O=C(O)c1cc(O)c(O)c(O)c1`, the “activity change, negative = inhibition” value is inactive: 1.5%.

Take `Cc1ccc(/C=C2/C(=O)NC(=O)N(CCc3ccc(F)cc3)C2=O)o1`: the “activity change, negative = inhibition” value was inactive: 24.9%.

On to `CO/C1=C\C(C)=C\[C@@H](C)[C@@H](O)[C@@H](C)C/C(C)=C/C=C\[C@H](OC)C([C@@H](C)[C@@H](O)[C@H](C)[C@@]2(O)C[C@@H](O)[C@H](C)C(C(C)C)O2)OC1=O` (stereo not given in full), for which the activity change, negative = inhibition is inactive: 44.3% [at 1.91 µM].

Consider `C[C@@]12CC[C@H]3[C@@H](CCC4=CC(=O)CC[C@]43C)[C@H]1CC[C@H]2C(=O)CO`, for which the “activity change, negative = inhibition” value is inactive: -1.21% [at 16.9 µM].

Turning to `O=C(O)c1nn(Cc2ccc(Cl)cc2Cl)c2ccccc12`, the activity change, negative = inhibition result was “inactive”.

On to `O=c1[nH]oc2c1CCNC2`, for which the activity change, negative = inhibition entry is “inactive”.

With `O=C1CN(O)C(c2ccccc2)=c2cc(Cl)ccc2=N1`, the “activity change, negative = inhibition” value is inactive: 7.12%.

Consider `C[C@H](CCC(=O)O)C[C@H](C)C[C@H](C)C(=O)/C=C(\O)[C@H](C)C[C@H](C)C/C=C/[C@@H](C)[C@@H](O)[C@@H](C)[C@@H](O)C[C@@H]1CC[C@@](C)([C@H]2CC[C@@](C)([C@@H](C)O)O2)O1`, for which the “activity change, negative = inhibition” value is inactive: -2.34%.

Turning to `O=c1ccc2cc(O[C@H]3O[C@@H](CO)[C@@H](O)[C@@H](O)[C@@H]3O)c(O)cc2o1`, the activity change, negative = inhibition was inactive: -5.9% [at 2.98 µM].

With `O=c1c2ccccc2[se]n1-c1ccccc1`, the Potency is active: 10 µM.

`CCNc1nc(Cl)nc(NC(C)C)n1`: the activity change, negative = inhibition entry is “inactive”.

Turning to `C[N+]1(C)[C@@H]2CC(OC(=O)[C@H](CO)c3ccccc3)C[C@H]1[C@@H]1O[C@@H]12` (stereo not given in full), the activity change, negative = inhibition result was “inactive”.

As to `Cc1cc(O)ccc1Cl`, the “activity change, negative = inhibition” value is inactive: 10%.

`COC(=O)[C@@]1(Cc2ccc(F)cc2)[C@H]2c3cc(C(=O)N(C)C)[nH]c3C[C@H]2CN1C(=O)c1ccccc1`: the “activity change, negative = inhibition” value is inactive: 20.9%.

For `CCCCC/C=C\C/C=C\C/C=C\C/C=C\CCCC(=O)Nc1ccc(O)cc1C`, the “activity change, negative = inhibition” value is inactive: 2.32%.

Turning to `CC[C@]12C=CCN3CCC4(c5cc(Br)c(OC)cc5N(C)C4[C@@](O)(C(=O)OC)[C@@H]1OC(C)=O)C32` (stereo not given in full), the “activity change, negative = inhibition” value is inactive: 24.9%.

On to `CC(C)CC(N(C)C)C1(c2ccc(Cl)cc2)CCC1` (stereo not given), for which the “activity change, negative = inhibition” value was inactive: 0.894%.

`O=C1C=C2C=C[C@H]3C[C@]2(O1)[C@@H]1CCCCN13`: the “activity change, negative = inhibition” value is inactive: 8.84%.
